{
  "source": "PubChem BioAssay AID686971",
  "about": "(National Center for Advancing Translational Sciences (NCATS), 2013)",
  "note": "Among all 360,000 compounds or so, about 7,500 (2.1%) were called active. The shares of active, inactive and inconclusive entries below differ from those in the screen. The call rests on the fitted dose curve; in most records, active means well fitted cell-killing curve with a large enough effect; inconclusive means small, poorly fitted or top-dose-only effect, or effect the other way, or another doubt; inactive means no such curve, though single readings can be large or run the other way. No potency is given beside an inconclusive call; the fits are too rough. Potency means the concentration at half of the fitted maximal effect; tags describe the fitted curve by direction and shape.",
  "data": [
    {"assay": "qHTS for induction of synthetic lethality in tumor cells producing 2HG: qHTS for the HT-1080-IDH1KD cell line", "details": "HT-1080 IDH1 knockdown viability, ATP luminescence, 48 h; series mostly up to 46.1 µM", "summary_of_the_method": "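Using the IDH1-knockdown HT-1080 line run in the same batch and compound series as the NT line, viability after 48 h at 37 °C was determined by CellTiter-Glo luminescence and expressed as % activity.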", "values": [
      {"smiles": "O=C(NCc1ccccc1)C(c1ccccc1)N(C(=O)c1csnn1)c1ccccc1", "note": "(centres undefined)", "Potency": "inactive"},
      {"smiles": "CC1(C)C(=O)Nc2ccccc2N1C(=O)COC(=O)Cc1ccccc1F", "Potency": "inactive"},
      {"smiles": "COC(=O)c1ccc(NC(=S)NCCc2ccccc2C)cc1", "Potency": "inconclusive [cytotoxic, single point]"},
      {"smiles": "c1cc(C2CCN(Cc3nc(-c4ccc5c(c4)OCO5)no3)CC2)ccn1", "Potency": "inconclusive [cytotoxic, single point]"},
      {"smiles": "COc1ccc(C(C)(O)c2nc(-c3ccccc3C)cs2)cc1", "note": "(centres undefined)", "Potency": "active: 9.2 µM"},
      {"smiles": "CC1Cc2cc(C3(O)C(=O)c4ccccc4C3=O)ccc2N1", "note": "(centres undefined)", "Potency": "inconclusive [rising, partial curve, poor fit]"},
      {"smiles": "FC(F)(F)c1ccccc1Cc1c(-c2cccc(Cl)c2)nc2c3ccccc3ccn12", "Potency": "inactive"},
      {"smiles": "O=C(/C=C/c1ccc2ccccc2n1)N1CCN(S(=O)(=O)c2ccc(F)cc2)CC1", "Potency": "inconclusive [cytotoxic, single point]"},
      {"smiles": "OC(c1ccc2ccccc2c1)c1ncc(-c2ccc(C(F)(F)F)cc2)[nH]1", "note": "(centres undefined)", "Potency": "inconclusive [cytotoxic, single point]"},
      {"smiles": "NC(=O)CC(NC(=O)Cc1ccc(Br)cc1)c1ccc(NCc2ccc(F)c(F)c2)c([N+](=O)[O-])c1", "note": "(centres undefined)", "Potency": "inconclusive [cytotoxic, single point]"},
      {"smiles": "Cc1ccc(-c2cc(C(=O)Nc3cccnc3)c3ccccc3n2)o1", "Potency": "inconclusive [cytotoxic, single point]"},
      {"smiles": "CCSc1nnc(NC(=O)c2cc(C)nc3ccccc23)s1", "Potency": "inactive"},
      {"smiles": "CCc1nc2c(cnn2-c2ccc(Cl)cc2)c(=O)n1-c1ccc(OC)cc1", "Potency": "inconclusive [cytotoxic, single point]"},
      {"smiles": "COc1ccc(C=CC(=O)c2ccc3cc(OC)c(OC)cc3c2)cc1OC", "Potency": "inconclusive [cytotoxic, single point]"},
      {"smiles": "CNc1ccc(-c2cccc(C(C)=O)c2)cn1", "Potency": "inconclusive [cytotoxic, single point]"},
      {"smiles": "COc1ccc(OCCNC(=O)C2(C)CCN2Cc2ccc3ccccc3c2)cc1", "note": "(centres undefined)", "Potency": "inconclusive [cytotoxic, partial curve]"},
      {"smiles": "O=C(CSc1nnc(-c2ccccc2)c(-c2ccccc2)n1)NCc1ccco1", "Potency": "inconclusive [cytotoxic, single point]"},
      {"smiles": "O=C(CNc1cccc2ccccc12)N/N=C/c1ccccn1", "Potency": "inconclusive [cytotoxic, partial curve]"},
      {"smiles": "CSc1ccc(/C=C/C(=O)Nc2ccccc2)cc1", "Potency": "inconclusive [cytotoxic, partial curve]"},
      {"smiles": "CCOc1ccccc1N1CCN(C(=O)c2ccc3[nH]c4c(c3c2)CCCC4)CC1", "Potency": "inconclusive [cytotoxic, single point]"},
      {"smiles": "CCC(=O)n1nc(-c2ccc(Cl)cc2)nc1NCc1ccccc1", "Potency": "inconclusive [cytotoxic, partial curve]"},
      {"smiles": "O=C(N/N=C/c1ccccc1)c1ccc(CN2C(=O)c3cccc4cccc2c34)cc1", "Potency": "inconclusive [cytotoxic, single point]"},
      {"smiles": "CCC(=O)Nc1ccc2c(c1)nc1n2CCN(CCOC)C1", "Potency": "inactive"},
      {"smiles": "c1ccc(-c2nc(-c3ccccn3)no2)cc1", "Potency": "active: 10 µM"},
      {"smiles": "CS(=O)(=O)Nc1cc2c3c(c1)CCC(=O)N3CCC2", "Potency": "inconclusive [rising, single point]"},
      {"smiles": "CC1=NN(c2ccccc2)C(=O)/C1=C\\c1ccc(Oc2ccc([N+](=O)[O-])cc2[N+](=O)[O-])cc1", "Potency": "active: 10.3 µM"},
      {"smiles": "CC(=O)N(CCC1(C(C)C)CCOC(C)(C)C1)Cc1ccco1", "note": "(centres undefined)", "Potency": "inactive"},
      {"smiles": "C=CCNC(=O)c1onc(CSc2ccc(Cl)cc2)c1C(=O)O", "Potency": "inconclusive [cytotoxic, single point]"},
      {"smiles": "CCC(=O)N1Cc2cc(C(=O)Nc3nccs3)nc(-c3cccc(-c4ccccc4OC)c3)c2[C@H]1CCO", "Potency": "inconclusive [cytotoxic, single point]"},
      {"smiles": "O=C(NC(c1ccccc1)c1c(O)ccc2ccccc12)c1ccccc1Cl", "note": "(centres undefined)", "Potency": "active: 11.2 µM"},
      {"smiles": "Cc1ccc(NC(=S)N(C)Cc2cn(C)c3ccccc23)cc1", "Potency": "inconclusive [cytotoxic, single point]"},
      {"smiles": "NC(=O)c1cc[n+](CC(=O)NC(=O)Nc2ccccc2)cc1", "Potency": "inactive"},
      {"smiles": "COc1ccccc1Nc1nc(-c2ccc3c(c2)NC(=O)CO3)cs1", "Potency": "inconclusive [cytotoxic, single point]"},
      {"smiles": "COc1ccc(OC)c(C(=O)COC(=O)COc2ccccc2)c1", "Potency": "inactive"},
      {"smiles": "COc1ccc(Cc2c(-c3ccc(Cl)cc3)nc3c(C)cc(Br)cn23)c(C)c1", "Potency": "inconclusive [cytotoxic, single point]"},
      {"smiles": "N#CC(C#N)=C1SC(=Nc2ccccc2)C(=Nc2ccccc2)N1c1ccccc1", "Potency": "inconclusive [cytotoxic, single point]"},
      {"smiles": "CCOC(=O)C1(Cc2ccc(OC)cc2)CCN(C(=O)c2cncs2)CC1", "Potency": "inactive"},
      {"smiles": "CCN(CC)CCC(=O)N1C/C(=C/c2ccccc2)C(=O)/C(=C\\c2ccccc2)C1", "Potency": "active: 2.91 µM"},
      {"smiles": "Cc1nc(Nc2ccc(F)cc2)nc(Nc2ccc(F)cc2)c1[N+](=O)[O-]", "Potency": "inconclusive [cytotoxic, partial curve]"},
      {"smiles": "COc1cccc(Nc2nc(CN3CCOCC3)nc3sc4c(c23)CCCC4)c1", "Potency": "inactive"},
      {"smiles": "CCn1c(=O)cc(SCC(=O)NCCCN2CCN(c3ccccc3F)CC2)c2ccccc21", "Potency": "inconclusive [cytotoxic, single point]"},
      {"smiles": "CC(C)CC(N)c1csc(NC(=O)NCCc2ccccc2)n1", "note": "(centres undefined)", "Potency": "inconclusive [cytotoxic, single point]"},
      {"smiles": "O=S(=O)(c1ccccc1)c1cnc(-c2cccnc2)nc1-c1ccc(Cl)cc1Cl", "Potency": "inconclusive [cytotoxic, single point]"},
      {"smiles": "COc1ccc(-n2c(-c3cc(-c4ccccc4)sc3N)n[nH]c2=S)cc1", "Potency": "inconclusive [cytotoxic, single point]"},
      {"smiles": "S=C(NCCSCc1ccc(Cl)cc1Cl)Nc1ccccc1", "Potency": "inconclusive [cytotoxic, single point]"},
      {"smiles": "Cc1ccc(-c2csc(NNC(=O)c3ccccc3)n2)cc1", "Potency": "inconclusive [cytotoxic, partial curve]"},
      {"smiles": "O=C(CSCc1nc2c(nnn2Cc2ccc(F)cc2)c(=O)[nH]1)Nc1c(Cl)cc(Cl)cc1Cl", "Potency": "inconclusive [cytotoxic, single point]"},
      {"smiles": "COC(=O)C(CCC(C(=O)OC)N1C(=O)c2ccccc2C1=O)N1C(=O)c2ccccc2C1=O", "note": "(centres undefined)", "Potency": "inconclusive [rising, partial curve]"},
      {"smiles": "CCOC(=O)c1sc(-c2ccc(F)cc2)cc1N", "Potency": "inconclusive [cytotoxic, single point]"},
      {"smiles": "CC(=O)Nc1ccccc1OCCOc1ccc(Br)cc1", "Potency": "inactive"},
      {"smiles": "Cc1cc(-c2ccccc2)nc(N/N=C/c2ccco2)n1", "Potency": "inconclusive [cytotoxic, single point]"},
      {"smiles": "CCCCC(CC)C(=O)Nc1cc(C(=O)NCCC)ccc1N1CCC2(CC1)CC(c1ccccc1)=NO2", "note": "(centres undefined)", "Potency": "inactive"},
      {"smiles": "Cc1cc(O)c(-c2n[nH]c3c2C(c2cccc(O)c2)N(Cc2cccnc2)C3=O)cc1Cl", "note": "(centres undefined)", "Potency": "inconclusive [cytotoxic, single point]"},
      {"smiles": "CCn1c(SCC(=O)Nc2sccc2C(N)=O)nnc1C1CC1", "Potency": "inactive"},
      {"smiles": "Cc1cc(C)c2c(=O)n(CC(=O)Nc3cccc(F)c3)sc2n1", "Potency": "inconclusive [cytotoxic, single point]"},
      {"smiles": "Cc1cc(Nc2ccccc2)n(-c2ccc(Br)cc2)n1", "Potency": "inconclusive [cytotoxic, partial curve]"},
      {"smiles": "O=C(Cc1c[nH]c2ccccc12)Nc1nnc(C2CC2)s1", "Potency": "inconclusive [cytotoxic, partial curve]"},
      {"smiles": "COc1ccccc1-c1cc(C(=O)N/N=C/c2ccc(C)s2)c2ccccc2n1", "Potency": "inconclusive [cytotoxic, partial curve]"},
      {"smiles": "CNc1cncc(-c2cc(C)c(O)c(C)c2)n1", "Potency": "inconclusive [cytotoxic, partial curve]"},
      {"smiles": "CC(C)(C)NC(=O)N1c2ccccc2Sc2ccccc21", "Potency": "inactive"},
      {"smiles": "O=C(CSc1ccccn1)Nc1nonc1[N+](=O)[O-]", "Potency": "inconclusive [cytotoxic, single point]"},
      {"smiles": "c1ccc(CNc2nc(NCC3CC3)nc3cc(-c4ccccc4)sc23)cc1", "Potency": "inconclusive [cytotoxic, single point]"},
      {"smiles": "CCOC(=O)N1CCC(N2CCCC(C(=O)c3ccc4cc(OC)ccc4c3)C2)CC1", "note": "(centres undefined)", "Potency": "inconclusive [cytotoxic, single point]"},
      {"smiles": "O=C(Cc1cccs1)N1CCCC(c2nc3c(nnn3Cc3cccc(Cl)c3)c(=O)[nH]2)C1", "note": "(centres undefined)", "Potency": "inconclusive [cytotoxic, single point]"},
      {"smiles": "COc1ccc(C(C(=O)NC2CCCC2)N(C(=O)c2snc(-c3ccc(F)cc3)c2N)c2ccccc2)cc1", "note": "(centres undefined)", "Potency": "inactive"},
      {"smiles": "O=C(N=C1SCC(=O)N1c1ccccc1Cl)c1ccccc1", "Potency": "inactive"},
      {"smiles": "CC(C)c1ccc(C2C3=C(CC(C)(C)CC3=O)NC3=C2C(=O)c2ccccc23)cc1", "note": "(centres undefined)", "Potency": "inconclusive [cytotoxic, single point]"},
      {"smiles": "COc1cc(/C=N/NC(N)=S)ccc1OCc1ccc(C)cc1", "Potency": "inconclusive [cytotoxic, single point]"},
      {"smiles": "CC(C)c1ccc(NC(=O)C2C3C=CC4(O3)C2C(=O)N(CCCN2CCCCC2)C4C(=O)NC2CCCCC2)cc1", "note": "(centres undefined)", "Potency": "inactive"}
    ]}
  ]
}
